Assay results taken from PubChem BioAssay AID2675 (National Center for Advancing Translational Sciences (NCATS), 2010).
Out of some 280,000 compounds screened, about 100 (0.036%) were called active. Inconclusive means that the source gave no clear call. Such entries were picked first, then a sample of the others. The call rests on the fitted dose curve; in most records, active means well fitted inhibition curve with a large enough effect in the signal ratio, with a control signal flat (not every such curve was filed as active); inconclusive means small, poorly fitted or top-dose-only effect, or effect the other way, or a change in a side signal; inactive means no such curve, though single readings can be large or run the other way; the % refers to the signal ratio. Potencies of inconclusive entries are doubtful fits and often do not repeat. “Side channel” marks fits to a control or component signal instead of the main read-out.

target: Muscleblind-like protein 1 (Homo sapiens) (UniProt Q9NR56); assay: qHTS Assay for Inhibitors of MBNL1-poly(CUG) RNA binding; details: TR-FRET MBNL1-His/biotin-(CUG)12 binding, 665/545 ratio; series mostly up to 57.5 µM
UniProt Q9NR56, sequence (Q9NR56 whole entry, looked up): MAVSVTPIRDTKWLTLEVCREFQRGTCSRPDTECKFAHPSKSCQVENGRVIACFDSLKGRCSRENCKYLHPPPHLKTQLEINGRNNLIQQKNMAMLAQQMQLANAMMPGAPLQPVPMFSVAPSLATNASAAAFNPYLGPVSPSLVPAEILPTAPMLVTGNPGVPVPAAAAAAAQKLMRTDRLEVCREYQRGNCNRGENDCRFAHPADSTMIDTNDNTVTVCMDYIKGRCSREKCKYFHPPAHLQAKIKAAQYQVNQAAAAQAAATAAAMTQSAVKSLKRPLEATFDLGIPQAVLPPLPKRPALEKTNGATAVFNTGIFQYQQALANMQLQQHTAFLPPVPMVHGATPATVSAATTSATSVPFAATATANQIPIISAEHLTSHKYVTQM
Summary of the method: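 Ratiometric TR-FRET (665 over 545 nm, excitation 340 nm) tracks disruption of MBNL1-His/biotin-(CUG)12 complex after 60 min at room temperature, with compounds at 92 nM to 58 uM final.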
Potency means the concentration at half of the fitted maximal effect; tags describe the fitted curve by direction and shape or compound fluorescence and quenching.

**Q.** Which Potency does the source give for `NC(=O)COC(=O)c1cccc2c1-c1ccccc1C2=O` here?
**A.** inconclusive: 15.8 µM [quencher, partial curve]

**Q.** `CC1CCCC(C)N1C(=O)Cc1ccccc1` (stereo unspecified) was tested. Which Potency did it give?
**A.** inconclusive: 12.6 µM [quencher, side channel, partial curve, poor fit]

**Q.** For `O=C(CN1CCOCC1)N/N=C/C(Br)=C\c1ccccc1`, which Potency is on record?
**A.** inconclusive: 39.8 µM [quencher, side channel, single point]

**Q.** With `S=c1nc(Cc2ccc(Cl)cc2)[nH]c2ccccc12` as the compound, how does the Potency read?
**A.** inactive

**Q.** Which Potency does the source give for `O=C1C2C3C=CC(C4CC34)C2C(=O)N1/N=C/c1ccc(-c2ccc([N+](=O)[O-])cc2)o1` (stereo unspecified) here?
**A.** inconclusive: 12.6 µM [quencher, side channel, partial curve]

**Q.** Which Potency does the source give for `Cc1cc(-c2ccc(C)c(S(=O)(=O)NCCCN3CCCCCC3)c2)on1` here?
**A.** inconclusive: 158 µM [inhibitor, partial curve]

**Q.** `COC(=O)CSc1nc(N)c(NC(=O)c2ccc(OC)c(OC)c2)c(=O)[nH]1` was tested. Which Potency did it give?
**A.** inconclusive: 3.98 µM [quencher, side channel, full curve, poor fit]

**Q.** How did the Potency turn out when `O=C1C(Cl)=C(N2CCOCC2)C(=O)N1c1ccc(Br)cc1` was run?
**A.** inconclusive: 6.31 µM [quencher, side channel, partial curve]

**Q.** For `C=CCC1(CC=C)CCCN1Cc1nc(COc2ccccc2)no1`, which Potency is on record?
**A.** inactive

**Q.** With `Cn1c(=O)c(-c2ccccc2)nc2ccccc21` as the compound, how does the Potency read?
**A.** inconclusive: 11.2 µM [quencher, partial curve]

**Q.** For `NC(=O)C1CCN(C(=O)CSc2ccsc2[N+](=O)[O-])CC1`, which Potency is on record?
**A.** inconclusive: 2.51 µM [quencher, side channel, partial curve, poor fit]

**Q.** `COc1ccc(NC(=O)CN(C)S(=O)(=O)c2ccccc2)c([N+](=O)[O-])c1` was tested. Which Potency did it give?
**A.** inconclusive: 6.31 µM [quencher, side channel, partial curve]

**Q.** How did the Potency turn out when `O=C(O)c1ccc(CN(Cc2ccccc2)S(=O)(=O)c2ccc(Cl)cc2)cc1` was run?
**A.** inactive

**Q.** `N#CC1=C(N)Oc2n[nH]c(-c3cccs3)c2C1c1cccs1` (stereo unspecified) was tested. Which Potency did it give?
**A.** inactive

**Q.** How did the Potency turn out when `S=C(NCc1ccco1)Nc1cc(-c2ccccc2)[nH]n1` was run?
**A.** inactive

**Q.** For `COc1cc(/C=N/NC(=O)CSc2ccccn2)ccc1O`, which Potency is on record?
**A.** inactive

**Q.** `COc1ccc2[nH]c(=O)c(CN(Cc3ccco3)Cc3nnnn3Cc3ccccc3)cc2c1` was tested. Which Potency did it give?
**A.** inconclusive: 15.8 µM [quencher, side channel, partial curve]

**Q.** How did the Potency turn out when `O=Cc1ccc(-c2ccc([N+](=O)[O-])cc2Cl)o1` was run?
**A.** inconclusive: 14.1 µM [quencher, partial curve]

**Q.** With `CCOC(=O)c1c(-c2ccc(OC)cc2)csc1NC(=O)CNCc1ccco1` as the compound, how does the Potency read?
**A.** inactive

**Q.** `CC(=O)NC(=S)Nc1cccc([N+](=O)[O-])c1` was tested. Which Potency did it give?
**A.** inconclusive: 7.94 µM [quencher, side channel, partial curve]

**Q.** How did the Potency turn out when `O=C(COc1ccc([N+](=O)[O-])cc1)NCc1ccccc1` was run?
**A.** inconclusive: 39.8 µM [quencher, side channel, single point]

**Q.** `CCN(CC)CCNC(=O)c1ccc(Sc2ccc(Cl)cc2)c(NC(C)=O)c1` was tested. Which Potency did it give?
**A.** inactive

**Q.** Which Potency does the source give for `CN(C)CCCNc1oc(/C=C/c2cccs2)nc1S(=O)(=O)c1ccccc1` here?
**A.** inconclusive: 22.4 µM [quencher, partial curve]

**Q.** `CN1C(=O)/C(=C/C=C2\SCCN2C)SC1=S` was tested. Which Potency did it give?
**A.** inconclusive: 0.141 µM [quencher, side channel, full curve, poor fit]

**Q.** With `CSCC[C@H](NC(=O)[C@H](Cc1ccccc1)n1c(=O)[nH]c2ccccc2c1=O)C(=O)N1CCC[C@@H]1C(=O)O` as the compound, how does the Potency read?
**A.** inactive

**Q.** How did the Potency turn out when `[O-][n+]1cccc2ncc3cscc3c21` was run?
**A.** inconclusive: 15.8 µM [quencher, side channel, partial curve]

**Q.** For `N#C/C(=C\c1cc([N+](=O)[O-])c(N2CCOCC2)cc1N1CCOCC1)c1nc2ccccc2[nH]1`, which Potency is on record?
**A.** inconclusive: 2 µM [quencher, side channel, full curve]

**Q.** With `CCOC(=O)N1CCc2c(sc(NC(=O)C3COc4ccccc4O3)c2C(N)=O)C1` (stereo unspecified) as the compound, how does the Potency read?
**A.** inactive

**Q.** For `O=C(CCCN1C(=O)c2ccccc2C1=O)NCCN1C(=O)S/C(=C\c2cccs2)C1=O`, which Potency is on record?
**A.** inconclusive: 3.16 µM [quencher, side channel, partial curve]

**Q.** For `CC1(C(=O)NCCc2c[nH]c3ccccc23)C=CCN1C(=O)c1ccccc1` (stereo unspecified), which Potency is on record?
**A.** inconclusive: 100 µM [inhibitor, single point]

**Q.** Which Potency does the source give for `CNc1ccc2c3c(cccc13)C(=O)N(C)C2=O` here?
**A.** inconclusive: 11.2 µM [quencher, side channel, partial curve]

**Q.** `Cc1ccc(-n2cc3ccc([N+](=O)[O-])cc3n2)cc1` was tested. Which Potency did it give?
**A.** inconclusive: 3.55 µM [quencher, side channel, full curve]

**Q.** `O=C(c1ccccc1Sc1ccc([N+](=O)[O-])cc1Cl)N1CCOCC1` was tested. Which Potency did it give?
**A.** inconclusive: 15.8 µM [quencher, partial curve]

**Q.** Which Potency does the source give for `O=c1cc(C(F)(F)F)[nH]c2c(C(F)(F)F)cccc12` here?
**A.** inconclusive: 126 µM [inhibitor, partial curve, poor fit]

**Q.** Which Potency does the source give for `O=C(/C(=C/O)N=Nc1ccc(Cl)cc1)c1ccncc1` here?
**A.** inconclusive: 15.8 µM [quencher, side channel, partial curve]

**Q.** `COc1cccc(CNc2ccc(N3CCCCC3)cc2)c1OC` was tested. Which Potency did it give?
**A.** inactive

**Q.** Which Potency does the source give for `Cc1ccc(-c2nc3ncccn3c2NC2CCCCC2)o1` here?
**A.** inconclusive: 20 µM [quencher, side channel, partial curve]

**Q.** Which Potency does the source give for `CCNC(=S)N(Cc1c(C)noc1C)c1ccccc1` here?
**A.** inactive

**Q.** Which Potency does the source give for `O=c1c2cc(Br)ccc2nc(-c2cccc(C(F)(F)F)c2)n1O` here?
**A.** inactive

**Q.** With `CCOC(=O)Cc1csc(NC(=O)c2cc(=O)c3ccccc3o2)n1` as the compound, how does the Potency read?
**A.** inconclusive: 11.2 µM [quencher, side channel, partial curve]

**Q.** With `CCOC(=O)c1sc(-c2ccccc2)cc1NC(=O)c1ccc(S(=O)(=O)N(CCOC)CCOC)cc1` as the compound, how does the Potency read?
**A.** inconclusive: 2 µM [fluorescent, side channel, partial curve]
